Measurements taken from the supplement of paper PMC12217912.
The other results are listed elsewhere or left out. Sequences were assembled here from the parent chain. Values near 0.05 are background.

B1: TEV protease; numbered along this chain (parent)
chain: MGESLFKGPRDYNPISSSICHLTNESDGHTTSLYGIGFGPFIITNKHLFRRNNGTLVVQSLHGVFKVKDTTTLQQHLVDGRDMIIIRMPKDFPPFPQKLKFREPQREERICLVTTNFQTKSMSSMVSDTSCTFPSGDGIFWKHWIQTKDGQCGSPLVSTRDGFIVGIHSASNFTNTNNYFTSVPKNFMELLTNQEAQQWVSGWRLNADSVLWGGHKVFMVKPEEPFQPVKEATQL

Variants of: B1
Assay: raw area under fraction-flipped curve 0-4 h after induction (AUC4h, not background-subtracted), DNA-recorder readout of cleavage of the substrate (dimensionless); higher = more cleavage of the substrate by the protease variant
Conditions: temperature: 34 °C; time window: 0-4 h after rhamnose induction
Protocol: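 In vivo DNA recorder in E. coli TOP10(DE3) ΔrhaA at 34 °C. Each TEVp single-site mutant (parent TEVp 0) is paired with a single-site variant of the 7-mer TEVs (canonical ENLYFQ|S). The substrate sits between flexible linkers in a Bxb1-sfGFP-TEVs-SsrA fusion, so cleavage stabilises Bxb1 and speeds flipping of a recombination array, read by NGS. The value is the raw area under the fraction-flipped curve over 0-4 h after rhamnose induction (AUC4h), with ≥20 reads per time point. It is not background-subtracted; inactive controls average about 0.047.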
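Further: Bxb1 expression induced with 0.2% (w/v) L-rhamnose at OD600 near 0.5, cultures sampled hourly, flipped fraction per protease–substrate barcode pair counted by paired-end Illumina sequencing.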

Row | Variant | area with substrate ENLDFQS | area with substrate ENLEFQS | area with substrate ENLFFQS | area with substrate ENLKFQS | area with substrate ENLLFQS | area with substrate ENLMFQS | area with substrate ENLNFQS | area with substrate ENLPFQS | area with substrate ENLQFQS | area with substrate ENLRFQS | area with substrate ENLSFQS | area with substrate ENLWFQS | area with substrate ENLHFQS | area with substrate ENLGFQS | area with substrate ENLVFQS | area with substrate ENLIFQS | area with substrate ENLTFQS
1 | D82H | 0.0514 | 0.0594 | 0.0582 | 0.0575 | 0.0569 | 0.0464 | 0.0675 | 0.062 | 0.0733 | 0.0408 | 0.0576 | 0.0589 | – | – | – | – | –
2 | G54W | 0.0486 | 0.0584 | 0.062 | 0.0604 | 0.0566 | – | 0.0553 | 0.0593 | – | 0.059 | 0.0522 | – | 0.0574 | – | – | – | –
3 | F133L | 0.0509 | 0.0619 | – | 0.0755 | – | – | 0.0501 | 0.0547 | 0.0615 | 0.066 | – | 0.0763 | – | 0.0546 | 0.0844 | – | –
4 | F140L | 0.0616 | 0.065 | 0.0637 | 0.0608 | 0.0588 | 0.0352 | 0.0617 | – | 0.078 | – | – | 0.0709 | 0.0595 | – | – | 0.0428 | –
5 | L205H | 0.0657 | – | – | – | – | – | 0.0894 | – | – | 0.0993 | – | – | 0.0621 | – | – | – | –
6 | Q146D | 0.0586 | 0.0606 | 0.0714 | – | 0.0693 | – | 0.0754 | – | 0.0662 | 0.105 | – | – | 0.0815 | 0.0503 | – | – | 0.0682
7 | L99Y | 0.0551 | 0.0549 | 0.0715 | 0.0721 | 0.0584 | – | 0.0636 | 0.055 | 0.0513 | 0.0685 | 0.06 | 0.0564 | 0.0583 | – | 0.0936 | – | 0.0606
8 | E195A | 0.0573 | – | 0.0963 | – | 0.0808 | – | 0.0639 | – | 0.0723 | – | 0.0514 | – | 0.0697 | 0.0648 | – | – | –
9 | D79F | – | 0.0565 | – | 0.0604 | 0.0401 | – | 0.0754 | – | – | 0.0692 | – | 0.0644 | 0.0637 | 0.073 | – | 0.0676 | 0.0525
10 | S171C | – | 0.0704 | – | 0.0765 | – | 0.0756 | 0.067 | 0.0501 | 0.0677 | 0.0622 | 0.0628 | 0.0943 | – | – | – | 0.0676 | –
11 | Q146V | – | 0.0564 | 0.0907 | 0.078 | 0.064 | – | 0.0692 | 0.0508 | 0.0664 | 0.0746 | 0.0735 | – | – | – | 0.0903 | 0.102 | –
12 | T174S | – | 0.0628 | 0.0957 | – | – | – | – | – | – | – | – | – | – | 0.06 | – | 0.0856 | –
13 | A170T | – | 0.0634 | – | – | – | – | 0.0618 | – | – | – | – | – | – | – | 0.0642 | – | –
14 | I15M | – | 0.0439 | 0.066 | – | 0.07 | 0.0797 | 0.055 | 0.0879 | 0.0624 | – | 0.0653 | – | 0.0722 | – | – | 0.0734 | –
15 | E223N | – | – | 0.0808 | 0.073 | – | – | 0.0721 | 0.0976 | – | 0.0569 | 0.0757 | – | 0.0586 | 0.0761 | – | 0.0861 | –
16 | I167V | – | – | 0.0816 | 0.0805 | – | – | 0.0699 | – | – | 0.0521 | 0.0485 | 0.0638 | 0.0731 | – | 0.0691 | – | –
17 | K185S | – | – | 0.0992 | – | – | 0.096 | 0.0719 | – | 0.0647 | 0.0637 | – | 0.0636 | 0.0614 | – | – | 0.078 | 0.0468
18 | P9C | – | – | 0.0598 | 0.0696 | 0.0767 | – | 0.0677 | 0.0527 | 0.0711 | – | 0.0777 | – | 0.0776 | – | 0.0786 | – | –
19 | H76M | – | – | – | – | 0.0649 | – | – | 0.0682 | – | 0.0733 | 0.0748 | – | 0.034 | 0.0669 | – | 0.0808 | 0.0724
